Results reported in the supplement of paper PMC8728848.
Some of the results follow.

Legend:
Assay in all cases: glycan array binding signal (z-score within array); higher = stronger binding
Settings in all cases: glycan notation: IUPAC condensed, linker removed
[1] = target: Fuc(a1-2)Gal(b1-4)GlcNAc(b1-3)Gal(b1-4)GlcNAc(b1-3)Gal(b1-4)GlcNAc
In short: (§1)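 The binding signal is a Z-score computed within each array and averaged over linkers. Arrays of the same protein sequence at different concentrations or buffers were also averaged together. Data originate from 3228 arrays in the Consortium for Functional Glycomics database, kept only where the protein sequence was available.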

[2] = target: Fuc(a1-2)Gal(b1-4)GlcNAc(b1-3)GalNAc
In short: as §1

[3] = target: Fuc(a1-2)Gal(b1-4)GlcNAc(b1-3)[Fuc(a1-2)Gal(b1-4)GlcNAc(b1-6)]GalNAc
In short: as §1

[4] = target: Fuc(a1-2)Gal(b1-4)GlcNAc(b1-3)[Fuc(a1-3)[Gal(b1-4)]GlcNAc(b1-6)]Gal(b1-4)Glc
In short: as §1

[5] = target: Fuc(a1-2)Gal(b1-4)GlcNAc(b1-6)GalNAc
In short: as §1

[6] = target: Fuc(a1-2)Gal(b1-4)GlcNAc6S
In short: as §1

[7] = target: Fuc(a1-2)Gal(b1-4)[Fuc(a1-3)]GlcNAc
In short: as §1

[8] = target: Fuc(a1-2)Gal(b1-4)[Fuc(a1-3)]GlcNAc(b1-2)Man(a1-3)[Fuc(a1-2)Gal(b1-4)[Fuc(a1-3)]GlcNAc(b1-2)Man(a1-6)]Man(b1-4)GlcNAc(b1-4)[Fuc(a1-6)]GlcNAc
In short: as §1

[9] = target: Fuc(a1-2)Gal(b1-4)[Fuc(a1-3)]GlcNAc(b1-2)[Fuc(a1-2)Gal(b1-4)[Fuc(a1-3)]GlcNAc(b1-4)]Man(a1-3)[Fuc(a1-2)Gal(b1-4)[Fuc(a1-3)]GlcNAc(b1-2)Man(a1-6)]Man(b1-4)GlcNAc(b1-4)GlcNAc
In short: as §1

[10] = target: Fuc(a1-2)Gal(b1-4)[Fuc(a1-3)]GlcNAc(b1-3)Gal(b1-4)[Fuc(a1-3)]GlcNAc
In short: as §1

[11] = target: Fuc(a1-2)Gal(b1-4)[Fuc(a1-3)]GlcNAc(b1-3)Gal(b1-4)[Fuc(a1-3)]GlcNAc(b1-3)Gal(b1-4)[Fuc(a1-3)]GlcNAc
In short: as §1

[12] = target: Fuc(a1-2)Gal(b1-4)[Fuc(a1-3)]GlcNAc(b1-3)GalNAc
In short: as §1

[13] = target: Fuc(a1-2)Gal(b1-4)[Fuc(a1-3)]GlcNAc(b1-3)[Neu5Ac(a2-6)Gal(b1-4)GlcNAc(b1-6)]Gal(b1-4)Glc
In short: as §1

[14] = target: Fuc(a1-2)Gal3S(b1-4)GlcNAc
In short: as §1

[15] = target: Fuc(a1-2)Gal6S(b1-3)GlcNAc
In short: as §1

[16] = target: Fuc(a1-2)Gal6S(b1-3)GlcNAc6S
In short: as §1

[17] = target: Fuc(a1-2)Gal6S(b1-4)Glc
In short: as §1

[18] = target: Fuc(a1-2)Gal6S(b1-4)Glc6S
In short: as §1

[19] = target: Fuc(a1-2)[Gal(a1-3)]Gal
In short: as §1

[20] = target: Fuc(a1-2)[Gal(a1-3)]Gal(b1-3)GalNAc
In short: as §1

[21] = target: Fuc(a1-2)[Gal(a1-3)]Gal(b1-3)GalNAc(b1-3)Gal(a1-4)Gal(b1-4)Glc
In short: as §1

[22] = target: Fuc(a1-2)[Gal(a1-3)]Gal(b1-3)GlcNAc
In short: as §1

[23] = target: Fuc(a1-2)[Gal(a1-3)]Gal(b1-3)GlcNAc(b1-2)Man(a1-3)[Fuc(a1-2)[Gal(a1-3)]Gal(b1-3)GlcNAc(b1-2)Man(a1-6)]Man(b1-4)GlcNAc(b1-4)GlcNAc
In short: as §1

[24] = target: Fuc(a1-2)[Gal(a1-3)]Gal(b1-3)GlcNAc(b1-2)Man(a1-3)[Fuc(a1-2)[Gal(a1-3)]Gal(b1-3)GlcNAc(b1-2)Man(a1-6)]Man(b1-4)GlcNAc(b1-4)[Fuc(a1-6)]GlcNAc
In short: as §1

[25] = target: Fuc(a1-2)[Gal(a1-3)]Gal(b1-3)GlcNAc(b1-3)GalNAc
In short: as §1

[26] = target: Fuc(a1-2)[Gal(a1-3)]Gal(b1-3)GlcNAc(b1-6)GalNAc
In short: as §1

[27] = target: Fuc(a1-2)[Gal(a1-3)]Gal(b1-4)Glc
In short: as §1

[28] = target: Fuc(a1-2)[Gal(a1-3)]Gal(b1-4)GlcNAc
In short: as §1

[29] = target: Fuc(a1-2)[Gal(a1-3)]Gal(b1-4)GlcNAc(b1-2)Man
In short: as §1

[30] = target: Fuc(a1-2)[Gal(a1-3)]Gal(b1-4)GlcNAc(b1-2)Man(a1-3)[Fuc(a1-2)[Gal(a1-3)]Gal(b1-4)GlcNAc(b1-2)Man(a1-6)]Man(b1-4)GlcNAc(b1-4)GlcNAc
In short: as §1

B1: Pbx2 (Cryptococcus neoformans) (protein)
chain: AVSPLPSSTELVFYSQKRRRRRICSTATGSLSTPDPTRMTSDPYKRVGMRFSSVPRLLITFLSLLLLVSAAPPCVRFADYDSINQMFIDGGPGTKVLLCPNRLYRLSGPIIFTAADQEIATYGYPTGSERAVLRVEGRNTATAIQGDCRRCARVSVKNLVVDGNRKKLGRMRDFQLATGLVVLGGNEGQSIQNSWIKNPRGFTAIHIREGDKLQCSGARVEKNEIGPVGEEYDPEKDGDDPEMSPLGRPLADGVSIACRDSFIRDNTFRDNTDAAIVVYCSPGTLIHANHIFAQSLSAMAGILMVDSTPFNGDYTGTVVRSNIIDAVSRTIRVGIGIGPTVWSDDTETILTGGSVIGNGLKGRYMGYGIAAAGLKQWTIKDNWDEAKHEGRKSARCFDEPVNPDPIGLLYNRPTMEDCTVQSGFADHDFQYLVCIDGLYDKTNPPKHDPAPLAHDPSPTNAQEDNTVQQDGGDSKSKSIEQPREASDIEAEPSVEKMFSTGSEMMDDVLEHSHQRMHEVIDHLSRRIDILGAASAGKGSGDSKISEVLDPAMSSHLEKLQRKIEHLEFSLRSQIETAIQLRSAIQGWDQEMALVTDWEYDILLDVRHKLELSSYPHDQPLDPRLMRGQSYLNNEAVLVDDHSHPSLEGENLRAMSDRARLNANEEA
In the case of B1, the “glycan array binding signal (z-score)” value [1] is reported as -0.165, the “glycan array binding signal (z-score)” value [2] is reported as -0.275 and the “glycan array binding signal (z-score)” value [3] is reported as 0.145. For the same binder, the “glycan array binding signal (z-score)” value [4] was -0.293, the “glycan array binding signal (z-score)” value [5] was -0.334 and the “glycan array binding signal (z-score)” value [6] was -0.374. The “glycan array binding signal (z-score)” value [7] was -0.305, the “glycan array binding signal (z-score)” value [8] was 0.365 and the “glycan array binding signal (z-score)” value [9] was -0.14. The “glycan array binding signal (z-score)” value [10] was -0.123, the “glycan array binding signal (z-score)” value [11] was -0.498 and the “glycan array binding signal (z-score)” value [12] was 5.82. The “glycan array binding signal (z-score)” value [13] was 0.069, the “glycan array binding signal (z-score)” value [14] was -0.561 and the “glycan array binding signal (z-score)” value [15] was 0.07. The “glycan array binding signal (z-score)” value [16] was 3.8, the “glycan array binding signal (z-score)” value [17] was -0.497 and the “glycan array binding signal (z-score)” value [18] was 1.44. For the same binder, the “glycan array binding signal (z-score)” value [19] was -0.41, the “glycan array binding signal (z-score)” value [20] was -0.257 and the “glycan array binding signal (z-score)” value [21] was -0.27. For the same binder, the “glycan array binding signal (z-score)” value [22] was -0.047, the “glycan array binding signal (z-score)” value [23] was -0.446 and the “glycan array binding signal (z-score)” value [24] was 0.037. For the same binder, the “glycan array binding signal (z-score)” value [25] was -0.12, the “glycan array binding signal (z-score)” value [26] was 0.177 and the “glycan array binding signal (z-score)” value [27] was 0.373. For the same binder, the “glycan array binding signal (z-score)” value [28] was -0.122, the “glycan array binding signal (z-score)” value [29] was 0.542 and the “glycan array binding signal (z-score)” value [30] was -0.409.
